# Measured values from the RNAGym collection of RNA variant scans (doi:10.1073/pnas.2313332121).
# Variants at the background level are over-represented here.
# B1: TPR 5TU (parent)
# chain: GGAUCUUCUCGAUCUAACAAAAAAGACAAAUCUGCCACAAAGCUUGAGAGCAUCUUCGGAUGCAGAGGCGGCAGCCUUCGGUGGCGCGAUAGCGCCAACGUUCUCAACUAUGACACGCAAAACGCGUGCUCCGUUGAAUGGAGUUUAUCAUG
# Variants of: B1
# Experiment: polymerase ribozyme fitness, log enrichment relative to wild type (log ratio); higher = more active; in vitro selection for triplet polymerase activity
# Summary of the method: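 A single round of triplicate in vitro selection, including frozen incubation at −7 °C, was applied to PCR-built, transcribed mutant libraries of each subunit of a heterodimeric triplet polymerase ribozyme. Illumina sequencing of input and output libraries retained genotypes with ≥10 input reads and ≥1 read per output. Fitness is the base-2 logarithm of genotype enrichment divided by wild-type enrichment, from inverse-variance-weighted replicate averages.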
row,Variant,polymerase ribozyme fitness (log ratio)
1,C10A A19U A22G U77G G83C,≤ -4.2
2,U9A U55A G74C A97U,≤ -4.2
3,U9C C38U C57A C79G C93U C149G,≤ -4.2
4,U9A A21G A22U C27A C63G C99U U102A,≤ -4.2
5,C10A A19G G88U C114G C132A,≤ -4.2
6,U9C A52G C93U A115U C116G,≤ -4.2
7,U9G C38U C96G A97U A138U,≤ -4.2
8,C10A A16C A19U A22U A29U C54U G58C C75A U78A A91C C103U C105U,≤ -4.2
9,U9G U44G G50A C76A G83A C87U A106G,≤ -4.2
10,C8U U44A G48A C63U C69U C76G G92U U139A G140U,≤ -4.2
11,U9A C14G G42C C54U U61A C79U C87U,≤ -4.2
12,U9G G11U A19U A23G A60C G74U G84U A98U U135A,≤ -4.2
13,U9C U44A C75G C87A U101C U146C,≤ -4.2
14,U9G U55G G68C C87A C99U A106G C114G C116U A121U,≤ -4.2
15,U9A G11A C54A G59A C75G G84A,≤ -4.2
16,U9G U53A G84C A115G,≤ -4.2
17,U9A G68U A110G A138U G140C,≤ -4.2
18,C8U C69A G83A C85G C105U,≤ -4.2
19,U9A A60C C85G C99G G117A G133C U139C U144C U148C,≤ -4.2
20,U9G U33A A41U C54U A66C G83A U102G C103G C123A C125A,≤ -4.2
21,C8U C32A G58C C93G G94U C95U G117U,≤ -4.2
22,U9C U44G U56A G68U C79A G84C C95U C103A C125G,≤ -4.2
23,U9C C27A C54A U61G A73G G92U C93U C116U,≤ -4.2
24,C8U C57U G71C G86A U104A,≤ -4.2

row,Variant,polymerase ribozyme fitness (log ratio)
1,U9G A12C G46C C79U C85U U90C U145A,≤ -4.2
2,U9C A22G U45A C87G G100U,≤ -4.2
3,U9C A29U G48A C96U,≤ -4.2
4,U9A G11A A29G C35U A49G C87U G92A U127C G128C,≤ -4.2
5,U9G A30G C93G G126U C129A,≤ -4.2
6,U9G A20C U55A C96U A97U,≤ -4.2
7,U9A C27U C36A G42C C69A G80A G136U G141C,≤ -4.2
8,C8U C87G A91U C105U U127A G141U U146A,≤ -4.2
9,U9C C38A A113U C118A,≤ -4.2
10,U9C A16G A40U G50A C95G A115U C131G,≤ -4.2
11,U9A A17C C18G A29C G67C A97U,≤ -4.2
12,U9G U33A G50A,-4.2
13,C8U C54U G88C G92U U104A A107U,≤ -4.2
14,U9C C35A C93A G126A A137U,≤ -4.2
15,U9A G42U A66U C87A U145C,≤ -4.2
16,U9C C18U G71C U82A C85G U146G A150C,≤ -4.2
17,C10A A21C G34A G68U U77C G92A U127C U135G,≤ -4.2
18,C8U U44A A97G G133C U148A,≤ -4.2
19,U9A U13A A29G C96A C132A,≤ -4.2
20,C8U U9A G92U C108G A120U C129A C149G,≤ -4.2
21,C8U U33A A49G A60G A89C C93U G141C,≤ -4.2
22,U9G C27U U56A A60C U82G A91U,≤ -4.2
23,C8U U61A C79A G83C,≤ -4.2
24,U9A G71C C85U,≤ -4.2

row,Variant,polymerase ribozyme fitness (log ratio)
1,C10A,-2.83
2,U9A A22U A39G C96G U109G,≤ -4.2
3,C10A A20C A113C,≤ -4.2
4,U9C A60C G81A A137U,≤ -4.2
5,U9C U53A A91G C108U C125U A137U,≤ -4.2
6,U9A U33G U77G A121C A142C A150U,≤ -4.2
7,U9G A16U A138U,≤ -4.2
8,C8U G11A C36U C85G G128C,≤ -4.2
9,U9A G67A G84A,≤ -4.2
10,U9C C54U A89G,≤ -4.2
11,C8U U44A G50A C57U C72U G92A G141U G143U A150G,≤ -4.2
12,C10A A17C G34A A91C U102G G140U,-3.67
13,U9G A47G,-3.86
14,U9G G48U A49C C51A C72G U82G G88U U144G U151C,≤ -4.2
15,U9C U53G C54A C95U U104C A106U C118U C149G,≤ -4.2
16,U9C U13C A16G G84A C95A,≤ -4.2
17,C8U G86U A122G,≤ -4.2
18,U9G A52G U56A C57U G92A G141C U144A,≤ -4.2
19,U9C A24G,≤ -4.2
20,C8U G68C A91C A122C,≤ -4.2
21,C10A A12C C105G,≤ -4.2
22,C8U G11C C32U U33G G92A G143U A150G,≤ -4.2
23,C8U U15C A17U A40G G42C U61G C75U C93U C129U G133U,≤ -4.2
24,C8U C18G C38A C76U U78C A106U A110C C132G U135C U144C U148A C149G,≤ -4.2

row,Variant,polymerase ribozyme fitness (log ratio)
1,U9A U61A C95A G136A G143U,≤ -4.2
2,C8U U56A G94A A97U U102C,≤ -4.2
3,C10A A12G A17U C32A C96U A110U C116U A147C,≤ -4.2
4,U9G A19G A39C A47G C76U G84A C103A A142C,≤ -4.2
5,U9A U15G U44A G48A U53A C57U A64G U90G U130C,≤ -4.2
6,U9G C87G,≤ -4.2
7,U9G A17G C54G C75G A147U,≤ -4.2
8,U9A A30U C36G G88U G141C,≤ -4.2
9,C8U C35A C93U G141A,≤ -4.2
10,U9C A29C G92U C95A C116A,≤ -4.2
11,U9G A41G A49C A89G U101G C125A,≤ -4.2
12,U9G U15C A19U C35G A113U C132U,≤ -4.2
13,U9C A37U G92A U102G C108U,≤ -4.2
14,U9A C38A C43U G94U U139A,≤ -4.2
15,U9C C54U C76A A91G G141C U151G,≤ -4.2
16,U9A A20C G70C C96U C99A,≤ -4.2
17,U9A U53A C116U G124U,≤ -4.2
18,U9G G58A C75U G83U C95A C131A,≤ -4.2
19,U9C U55A G70C G84U C95A U102C C103A,≤ -4.2
20,C8U C54G G67A A97C G136A,≤ -4.2
21,U9G G11U A17C A49C A60G C99A U148G,≤ -4.2
22,U9G C32U A41U A52U U53A C57G G71C,≤ -4.2
23,U9G A24U A40C G50A A113U C118G G143U,≤ -4.2
24,U9C C54A C87G U134A,≤ -4.2

row,Variant,polymerase ribozyme fitness (log ratio)
1,C8U C32U U53A C87U C96A U139A,≤ -4.2
2,C10A A12G A19C C85U C118U A119U A121G,≤ -4.2
3,U9A G59A C75U G81A A89U U101A A106G,≤ -4.2
4,C8U U45A A49G G58U G83U G141U,≤ -4.2
5,C10A A12U U13G G58U C76A G92U C123A,≤ -4.2
6,U9C A40G A64G C87A,≤ -4.2
7,U9C C27U G84U G126U,≤ -4.2
8,U9G U44A,≤ -4.2
9,U9C G50U C85A C116A G136A,≤ -4.2
10,C8U C14G U53A G59A A73G C95G C96U,≤ -4.2
11,U9G C85G,≤ -4.2
12,C8U U15A U44A A97C A120U U139A,≤ -4.2
13,U9G A19U G88C C93G A110G,≤ -4.2
14,U9G C43A C54A C75G C93G U146A,≤ -4.2
15,U9A U33G C96A C99U A122U,≤ -4.2
16,C10A A16C C63U C87U C118U,≤ -4.2
17,C8U U56G G71C C85U C116A,≤ -4.2
18,C8U U45A G83U G92U C131U A150G,≤ -4.2
19,U9A C14A G88C C95U,≤ -4.2
20,C8U C32G C38G G68C C93U C108U C114G,≤ -4.2
21,U9A A17U A23G G88U C95G A115U C123G C129G U130A G140U U145G,≤ -4.2
22,U9A A20U A21U A39G C54A G92C C116G,≤ -4.2
23,U9C G70C C72U G92A G117U,≤ -4.2
24,C8U G42C C57U G74U C79U A107C,≤ -4.2

row,Variant,polymerase ribozyme fitness (log ratio)
1,C10A A17G A22U A24C U44A U53A C79A C87U C93A C95U A97C,≤ -4.2
2,U9A C32U,≤ -4.2
3,U9A C63U C85U U90A G140U,≤ -4.2
4,C8U G59U C87A,≤ -4.2
5,U9G U44G G50A G141U U146G G152A,≤ -4.2
6,U9G C10U C27A A73G C87G U90G U145A A150G,≤ -4.2
7,C8U C79A A89U C95G A107U,≤ -4.2
8,U9A C27U G67C A73G C93U G126C C132A,≤ -4.2
9,U9C U13A G88A G117A,≤ -4.2
10,U9A G11A A24G A26U G74A G80U C87U G94C A115C U146G U151A,≤ -4.2
11,U9G G70A U82C,≤ -4.2
12,U9A C38A C72A G84A C125U,≤ -4.2
13,U9G C35A A39G G83U G92C U134G U135G G136U,≤ -4.2
14,U9G A22U G48A C57G G59U A60U A73G G80C A122U G126A A142U,≤ -4.2
15,U9A G11C A24G A28U A37C G59C A60C A122G U127G G128A,≤ -4.2
16,C8U C27U A39G C57G C87G C93G A107G G112C,≤ -4.2
17,C8U C93A,≤ -4.2
18,U9A U31G C57U G74C G92C,≤ -4.2
19,U9A A16C A22U A41C C76G C93U A138U A142G,≤ -4.2
20,C8U U33A C38U G62A,≤ -4.2
21,U9C A19U C36G G62C C72G C87U U135A,≤ -4.2
22,U9C G25A A28C C32U C85U,≤ -4.2
23,U9A A26U G92U A142U,≤ -4.2
24,U9C A49U A52G G92U A147C,≤ -4.2

row,Variant,polymerase ribozyme fitness (log ratio)
1,C8U G62A C105U A142U G143C,≤ -4.2
2,C8U G58A G62C U82G A106G G141C,≤ -4.2
3,U9C U45G G59C G83C C87G C103A G117U G126A,≤ -4.2
4,U9G C14U C18G A23G A60C C95U C96U A147C,≤ -4.2
5,U9G A49C C76A G84A C96G C99U U101A A138U G140A,≤ -4.2
6,U9A U56A C72A G83C A91G C114U G141U G143A,≤ -4.2
7,U9G G59C G92C A107G A115G,≤ -4.2
8,C8U G67A U82G U90G C96A C105A C116A C125U U135A A147C U148G,≤ -4.2
9,U9G C32G U56A G62U G68A G88U,≤ -4.2
10,U9A U56A C93A C108G G140U,≤ -4.2
11,U9G G74A A91G C93U G141U,≤ -4.2
12,U9A G48A C51A G94U,≤ -4.2
13,C8U G141U,-2.76
14,U9A A39C C76U G86U A147C C149G,≤ -4.2
15,U9A C93G,≤ -4.2
16,U9G C35U A39U C79G U146G C149G,≤ -4.2
17,U9A G25C C38U G71U U135C A147G,≤ -4.2
18,U9C U44G C85A A110G G152A,≤ -4.2
19,U9G G42A C57A G92U,≤ -4.2
20,U9C U15C A20U C85A A106G A110U C114A,≤ -4.2
21,U9A A21C G42A A47C U53G U55A G67A C118A,≤ -4.2
22,C8U C27U C38U A39C C69U G94C C95G C103G,≤ -4.2
23,U9G A22U A47G G88A U104A C118G A120U G141A A147C,≤ -4.2
